Sequences with one replicate were seen in a single cluster, so their values are uncertain.
System: ATP
Assay: switch fluorescence ratio, 500 uM ATP over buffer (Cy3 cluster intensity, sum of 5 cycles each) (fold (ratio)); higher = stronger signal-on switching upon ATP binding; sequences stand for … in TCGTCGGCAGCGTCAGATGTGTATAAGAGACAGTTTTTTTTTTTTTTTTTTTTTTTTT…TC
Conditions: aptamer strand: ATP DNA aptamer (quencher-CACCTGGGGGAGTATTGCGGAGGAAGG + anchor), 100 nM annealed; ATP concentration: 500 uM; one replicate
Outline: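 Clusters carrying Cy3-labelled switching strands on a modified Illumina MiSeq flow-cell were annealed to 100 nM quencher-labelled ATP aptamer and imaged in selection buffer. They were imaged again after 15 min with 500 uM ATP at 22 °C, over five buffer/ATP cycles with NaOH stripping and re-annealing in between. For each cluster, the fluorescence ratio is the summed Cy3 intensity of the target cycles divided by that of the buffer cycles, averaged per switch-domain sequence. Clusters outside 100-1000 RFU were left out.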
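Note: ATP exposure 15 min at 22 °C before imaging.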

Sequence	switch fluorescence ratio
AAGGTCACAT	1.03
CATCTCCAAC	1.08
GGCGGTGGTG	1
ATCTGGGCTT	0.956
TTACGGGTTT	0.98
CAGTACGTT	1.02
TCGATGGAA	1
AAAAGGTATG	1.03
AAAATGTTGT	0.969
GATCATTCCG	0.997
ACCACGGTGC	2.56
GAGTTGTCTC	1.06
TGGCAAACGC	1.03
CCCCGTAAGG	1.1
TTCTGGGAAT	0.959
CCATATTGTT	1.04
ATCTGGTTTT	1.01
GGCAGGGGCA	1.42
GGATTGTGGG	1.01
CCAGAACGCT	1.11
GACTGAGGAA	0.936
ACGTGGTTCC	1.06
TTTTCAGCAT	2.85
ATGGGTATCG	0.986
TATTAGTTCA	0.991
TTGTCTAGTG	0.958

Sequence	switch fluorescence ratio
CATTGAGTGG	0.965
CCAACGTCAC	2.75
CAAACGGACT	1.19
CGCATGCTTT	1.15
TAATCGTAAG	1.07
GTAATCGGGG	1.02
GGCCGCGTGG	0.991
TCCTTAGAGG	1.02
TTGCGAGGAA	0.998
TGTTACTATA	1.08
AGGAGGTAGT	0.989
TCCGCTCGTC	2.06
TGTGCCCGTC	1.01
TATTGAGGCG	0.986
GCAAATAGTA	0.976
TCTGATCTTT	1.15
AAATCTTGCA	1.1
CATGCATAAC	2.03
GCAATCACGA	2.67
GCTACGTTAT	1.35
GAGGGTAGTA	1.02
CAGATCGAGC	0.98
GCGCAGTTTG	1.02
CTGCGGATAT	1.33
CATGGCCTA	0.994
GTTTACCCAT	1.02

Sequence	switch fluorescence ratio
CTACTAATCA	1
TAAAGTCATG	1.01
TTCTCGGGGT	0.995
CCAGGCACAG	1.05
AAGTGTCTGC	0.975
CAGATCATAT	0.951
TCTGCGAAT	3.5
ACATTCTGAT	1
ATTTTACAGG	1.01
GAAGGACACG	0.968
AAAGATAAGA	0.98
GGTGCGTAGA	1.03
CGCACTTGAC	1.83
GTCTTTGGAC	0.991
CACAGTCCCG	1.04
ACTAGTGGAC	1.04
ATTTGGATA	1.01
TATATTGCGG	1.02
GATCGACCCA	1.02
AGTTCGAAGG	0.994
CGGTCTTCTC	0.999
TGCGCGTTTC	1.07
CGTAGTAAAA	0.972
TCCTTTATTC	1.02
GCGGATAGTT	0.987
CTACGGGATA	3.1

Sequence	switch fluorescence ratio
CAATACCTGA	1.09
TTAATCCAGG	1.22
GCACCAATAG	1.33
CTGAGGCGGG	1.08
GCGTCAAGGA	1.07
CCTGGAGGGA	1
GACGCATTAG	4.73
GCTGCTTGCA	1.01
TCCCTTATT	1.07
GCTTACATGT	1
CTTATCGATG	0.951
CAAAAAGGTT	1
GATTTGTAAG	1.02
TTCTCAGACA	0.983
GGCGGAGGCT	0.971
GGTGCTTCTT	0.994
AGGCAACCTG	1
AAGTATCTAA	0.999
GATAATGGAG	0.981
GTTGATCCTG	0.949
CGGACAGCAT	3.14
GCCAGAATCA	0.975
GCGTTAGACG	1.04
CCGTAAAAGG	1.07
AAGGACGACA	1.16
ACATCTACGT	1.47

Sequence	switch fluorescence ratio
TGTTGGGGT	0.975
TTCAGAGGGA	0.955
AGCTAAGTTC	0.941
CGGATTCGTC	0.971
CAAGCTCACG	1.02
ATGTACGGCA	1.02
GGAGAAGCAA	1.55
ATGTGGTCG	1.03
CGTGAACAAC	1.03
CGCAAATTTT	1.12
CTTAGATAAT	1.03
TTTTTGA	1
TTTCGTACA	1.04
TGATCAGTTG	0.985
ATGTATAGTG	0.965
CTAATCGACG	1.02
TAACTGGGG	0.97
TGGGTACCGC	0.99
TTTCATTTAG	1.01
ATTGCGAGGA	0.953
TCCCTATTGC	1.03
TCTTACTAGT	0.993
CGTTCATAAA	0.969
GTCAATCGTG	0.991
CACTCTGATT	1.03
AGAGGGAAC	0.967

Sequence	switch fluorescence ratio
TCTACGATGA	1.05
CGTCCGGTCT	1.03
TCTTACTACC	1.34
TTAGGCCACG	0.993
CCCCCCACGT	1.61
AATGTTTTT	0.997
CGAACTTTAA	1.01
TTGATGGGAA	1.01
ACTGTTTCTA	0.976
ATAGGAGGT	1.02
CCGACCGATG	2.24
AGCTTAGACA	1.01
GGTTAGTATA	0.941
CTGTTAGAT	0.985
TTGTTGAAGA	1.05
GGATTGATAG	1.03
GCCTTGCTTA	0.97
TTCACAGTG	1.02
CCATGAGCTC	1.07
TCTACATAAG	1
AGATCATTAT	1.03
TAGGTGTACA	1.02
GCTAGCAAAA	1.02
CGCGTCACGT	1.03
ACGTCTATCG	1.02
AGGGCACAGA	0.999

Sequence	switch fluorescence ratio
ATGTCATTAA	1.01
AGCAGTTGCT	0.993
CGTTTGCGCC	0.943
ATCCAAAGAG	1.01
CTCGTACGGT	0.988
GATCACGGAA	1.08
ATTTGAAAAT	1.01
TTCGATTGAA	0.98
GGCCGCCCTA	1.03
AATTAAATAT	0.977
GTTCATGGGA	0.999
TCTACATTTT	0.985
ATTCAGTGAA	0.983
CCGGGGCCCC	0.991
GACTGTATTC	1.08
GATGCTGAGA	0.966
ATCGTTAGG	0.995
GTTGTCTATA	0.974
GATTGTGCCT	0.997
CCTTGTACAC	1.36
TCCTTCAGAT	1.02
TTACAGGGAC	1.5
TGCTTAGTTT	0.929
CGAAAGCCGG	0.967
TCAAGGGAGG	0.992
GGCTGCGGGA	1.03

Sequence	switch fluorescence ratio
AAAGCATGAG	1.03
AAACTTAGGG	1.01
TCTATGGTA	0.984
ACGGCTCACA	1.21
TTACATGGCT	1.04
GCCTTGCTTG	1.04
GATTCAGCAT	1.1
CTTCTACAAC	1.16
TAGCGGCCGA	1.03
CACTGGTGGT	1
GGAACCAAAA	1.06
ATCTTGCTGT	1
TAGTTCTCAG	0.995
GCTGGAATGA	0.972
TGCGACTATG	0.938
AAGAATCGAG	0.995
TAACGCATGT	1.01
ACTTAGCTAA	1.09
ACCGCGCGGC	1

Reference: the supplement of paper PMC10126150
